The results in this text go back to PubChem BioAssay AID1745853 (National Center for Advancing Translational Sciences (NCATS), 2022).

The list shows a part of the results. Further columns of the screen follow, without active or inactive calls.

Common to all, as to test: Primary Screen for Target Class Profiling of Small Molecule Inhibitors of Methyltransferases
For assay [1], the target named is Glycine N-methyltransferase (Homo sapiens) (UniProt Q14749). As to conditions: purified enzyme, MTase-Glo SAH luminescence; measured here: GNMT inhibition; at 40 µM; stronger effect = lower value. A digest of the protocol: (§1)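 Each enzyme was reacted with SAM and its substrate, with compounds tested once at 40 uM; SAH formed was read by MTase-Glo luminescence.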
The target of assay [2] is Guanidinoacetate N-methyltransferase (Homo sapiens) (UniProt Q14353). The note with it: purified enzyme, MTase-Glo SAH luminescence; measured here: GAMT inhibition; at 40 µM; stronger effect = lower value. The procedure, abridged:
as §1

Assay [3] deals with Histamine N-methyltransferase (Homo sapiens) (UniProt P50135). The note with it: purified enzyme, MTase-Glo SAH luminescence; measured here: HNMT inhibition; at 40 µM; stronger effect = lower value. A digest of the protocol: as §1
In assay [4] the target is Nicotinamide N-methyltransferase (Homo sapiens) (UniProt P40261). As to conditions: purified enzyme, MTase-Glo SAH luminescence; measured here: NNMT inhibition; at 40 µM; stronger effect = lower value. A digest of the protocol:
as §1

The target of assay [5] is Phenylethanolamine N-methyltransferase (Homo sapiens) (UniProt P11086). As to conditions: purified enzyme, MTase-Glo SAH luminescence; measured here: PNMT inhibition; at 40 µM; stronger effect = lower value. A digest of the protocol:
as §1
% is scaled to controls: 0 for no effect and ±100 for the full control effect.

As for `CCc1ccc(N2C(=O)c3cc4ccccc4n3CC2(C)C(=O)NCc2ccccc2OC)cc1` (stereo unspecified), the activity change, negative = inhibition in assay [1] is 0.035%; in assay [2], 0%; in assay [3], 6.02%; in assay [4], 7%; in assay [5] it was 1.06%.
Take `CC(C)CCNC(=O)C1(C)Cn2nc(C(=O)NCc3ccc(Cl)cc3)cc2C(=O)N1C` (stereo unspecified): the activity change, negative = inhibition is -7.21% in assay [1]; 0.552% in assay [2]; -4.92% in assay [3]; -20.6% in assay [4]; -2.63% in assay [5].
For `N#Cc1cccc(CN2CCCC2=O)c1`, the activity change, negative = inhibition in assay [1] was -2.24%; in assay [2] it was -1.33%; in assay [3] it was 0.058%; in assay [4], -0.243%; in assay [5], -15.1%.
As for `Cc1ccccc1CN1C(=O)c2cc3ccccc3n2CC1(C)C(=O)NCCC(C)C` (stereo unspecified), the activity change, negative = inhibition in assay [1] was -0.381%; in assay [2], 0.211%; in assay [3], 1.14%; in assay [4] it was -7.5%; in assay [5], -4.74%.
For `CC(C)CCNC(=O)c1ccc2c(=O)nc3c(-c4ccc(F)cc4)n[nH]n3c2c1`, the activity change, negative = inhibition in assay [1] was -5.4%; in assay [2] it was -0.85%; in assay [3], -2.03%; in assay [4], -10.1%; in assay [5], -8.43%.
The like results for `O=[S+]([O-])(c1cccs1)N1CCN(c2nc3ncccc3o2)CC1` were, in that order, -5.25%, -7.94%, -2.13%, -11.9% and -5.04%.
Regarding `COc1ccc(CN2C(=O)c3cc(-c4cccs4)nn3CC2(C)C(=O)NC2CCCCCC2)cc1` (stereo unspecified), the activity change, negative = inhibition in assay [1] was -1.03%; in assay [2] it was 0.027%; in assay [3] it was 3.55%; in assay [4], 0.102%; in assay [5], -0.628%.
The matching figures for `CC(C)(C)CN[C@@H](Cn1cc(F)c(=O)[nH]c1=O)C(=O)O`: 0.362%, -0.641%, 1.16%, 2.45% and -0.788%.
For the compound `Cc1ccc(C(=O)Cn2nc3n(C(C)C)c(=O)c4ccc(C(=O)NC5CCCCC5)cc4n3c2=O)c(C)c1`, the activity change, negative = inhibition in assay [1] was -6.89%; in assay [2], 3.73%; in assay [3] it was -0.113%; in assay [4], -0.026%; in assay [5], 1.84%.
The matching figures for `COCC(=O)NC[C@H]1OC[C@@H](NC(C)C)[C@@H]1O`: -2.66%, -3.58%, -3.76%, -8.8% and -3.04%.
For the compound `Cc1cnn(C(C)C(=O)N2CCC3(CCC(=O)N(C4CC4)C3)CC2)c1` (stereo unspecified), the activity change, negative = inhibition in assay [1] is -0.085%; in assay [2] it was -2.52%; in assay [3], 1.31%; in assay [4], -3.79%; in assay [5], 0.167%.
The like results for `CCCN1CCN(c2ccc(C(=O)NC3(C(=O)NCC#N)CCCCC3)cc2)CC1` were, in that order, 3.17%, -7.87%, -5.8%, -19.2% and -12.5%.
On to `C[C@H]1Oc2cc(cnc2N)-c2c(nn(C)c2C#N)CN(C)C(=O)c2ccc(F)cc21`, for which the activity change, negative = inhibition in assay [1] was 5.16%; in assay [2] it was 0.747%; in assay [3], 0.422%; in assay [4], -18.6%; in assay [5] it was -3.73%.
In the case of `C/C=C(/C)C(=O)O[C@@H]1c2cc(OC)c(OC)c(OC)c2-c2c(cc3c(c2OC)OCO3)C[C@H](C)[C@]1(C)O`, the activity change, negative = inhibition in assay [2] was 14.2%; in assay [4], -6.48%; in assay [5], 6.94%.
As for `C[C@@]1(c2cc(-c3cncnc3)c(F)cc2F)CCSC(N)=N1`, the activity change, negative = inhibition in assay [1] is -4.71%; in assay [2], -1.04%; in assay [3] it was 2.22%; in assay [4] it was -13.5%; in assay [5] it was -6.71%.
The matching figures for `COc1ccc(OC)c(CCNC(=O)CCc2nnc3n(Cc4ccccc4)c(=O)c4ccccc4n23)c1`: -10.7%, 5.61%, -9.72%, -10.5% and -2.6%.
The matching figures for `CC(C)Cn1c(=O)c2ccccc2n2c(=O)n(Cc3cccc(Cl)c3)nc12`: 2.05%, 1.14%, 6.49%, 0.059% and 2.46%.
The matching figures for `O=C(NC1CCCCC1)c1ccc2c(=O)nc3c(-c4cccc(F)c4)n[nH]n3c2c1`: 5.6%, 1.21%, 5.2%, 8.07% and 2.3%.
Turning to `COc1cccc(-c2cc(C(=O)N3CCN(c4ncccn4)CC3)c3cnn(C)c3n2)c1`, the activity change, negative = inhibition in assay [1] is -8.72%; in assay [2], -5.11%; in assay [3], -8.07%; in assay [4], -19%; in assay [5], -11.3%.
Consider `CCc1cnn2c(NCc3ccc[n+]([O-])c3)cc(N3CCCC[C@H]3CCO)nc12`, for which the activity change, negative = inhibition in assay [2] is 3.93%; in assay [4], -21.1%; in assay [5], 1.97%.
On to `C=C1CC23CC1CCC2C12OC(=O)C(C)(C(O)C(O)C1O)C2C3C(=O)O` (stereo unspecified), for which the activity change, negative = inhibition is 2.86% in assay [1]; 3.67% in assay [2]; 10.6% in assay [3]; -7.21% in assay [4]; 1.33% in assay [5].
`C=CCC1=C[C@]2(OC)[C@H](C)[C@@H](c3ccc(OC)c(OC)c3)O[C@]2(OC)CC1=O`: the activity change, negative = inhibition in assay [1] is 2.44%; in assay [2] it was -2.56%; in assay [3], 7.04%; in assay [4], -15.1%; in assay [5], 2.4%.
With `O=C(c1ccc2c(=O)nc3c(-c4ccccc4)n[nH]n3c2c1)N1CCN(c2ccccc2F)CC1`, the activity change, negative = inhibition in assay [1] is -0.562%; in assay [2], 5.62%; in assay [3], -0.179%; in assay [4] it was 4.03%; in assay [5], 3.45%.
The like results for `O=C(NC1C[C@H]2CC[C@@H](C1)N2C(=O)c1ccn[nH]1)c1ccncc1` (stereo partly specified) were, in that order, -0.153%, 0.046%, 1.44%, -3.25% and 2.6%.
Regarding `COCCCNC(=O)C1(C)Cn2nc(-c3ccccc3)cc2C(=O)N1c1cccc(SC)c1` (stereo unspecified), the activity change, negative = inhibition in assay [1] was -2.64%; in assay [2], -0.245%; in assay [3], 0.579%; in assay [4], -1.03%; in assay [5] it was -4.56%.
`COCCn1c2c(c(=O)n1-c1ccccc1)CCN(C(=O)c1cc3ccccc3n1C)C2`: the activity change, negative = inhibition is -4.4% in assay [1]; 0.672% in assay [2]; -1.36% in assay [3]; -10.1% in assay [4]; -3.19% in assay [5].
The like results for `CCN1C(=O)c2c(C(=O)NCCc3ccc(C)cc3)ncn2CC1(C)C(=O)NC1CCCC1` (stereo unspecified) were, in that order, -3.82%, -10.3%, 2.98%, -5.39% and -0.674%.
Take `FC1(F)CN[C@H](c2nnc(C3CC3)o2)C1`: the activity change, negative = inhibition in assay [1] is -7.74%; in assay [2], -7.24%; in assay [3], -4.96%; in assay [4] it was -17.4%; in assay [5] it was -11.9%.
The matching figures for `Cc1ccc(NC(=O)N2CCn3cccc3C2C)cc1F` (stereo unspecified): 1.95%, 0.444%, 11.7%, -0.092% and 9.26%.
As to `CC(CCc1ccccc1)NC(=O)CCn1ccn2nc3c(c2c1=O)CCCC3` (stereo unspecified), the activity change, negative = inhibition is -4.39% in assay [1]; -2.21% in assay [2]; -1.65% in assay [3]; -13.2% in assay [4]; 3.53% in assay [5].
